Assay results published in PubChem BioAssay AID1645882 (National Center for Advancing Translational Sciences (NCATS), 2021).
Out of some 16,000 compounds screened, about 120 (0.75%) were called active. About 4% were inconclusive and are not listed. The call rests on the fitted dose curve; in most records, active means well fitted inhibition curve with a large enough effect; inconclusive means small, poorly fitted or top-dose-only effect; inactive means no such curve, though single readings can be large or run the other way. Some of the results follow.

The compounds below were run against Rap guanine nucleotide exchange factor 3 (Homo sapiens) (UniProt O95398) (assay: Validation qHTS for antagonist of cAMP-regulated guanine nucleotide exchange factor 3 (EPAC1)). Conditions: EPAC1 Rap1B-BODIPY-GDP exchange, fluorescence; series mostly up to 150 µM; activity change, negative = inhibition: at the top concentration.
Description: Assay Provider (PI): Xiaodong Cheng Ph.D.
The University of Texas Medical Branch, […], TX
In multi-cellular eukaryotic organisms, the effects of cAMP are transduced by two ubiquitously-expressed intracellular cAMP receptors, the classic protein kinase A/cAMP-dependent protein kinase (PKA/cAPK) and the more recently discovered exchange protein directly activated by cAMP/cAMP-regulated guanine nucleotide exchange factor (EPAC/cAMP-GEF). Both PKA and EPAC are ubiquitously expressed in all tissues, and an increase in intracellular cAMP levels will lead to the activation of both PKA and EPAC. Therefore, careful dissections of the individual role and relative contribution of EPAC and PKA within the overall cAMP signaling in various model systems are critical for further elucidating the mechanism of cAMP signaling. To date no EPAC-specific antagonists and agonist, as well as isoform-specific agonists have been reported, and developing EPAC-specific pharmacological probes to determine the physiological functions that EPAC play in the overall cAMP-mediated signaling remains a major challenge within the research field. Furthermore, identified regulators of EPAC may lead to new mechanism-based therapeutic strategies specifically targeting the EPAC / cAMP-signaling components as EPAC has been implicated to play important roles in major human pathological conditions such as diabetes, heart disease, and cancer.
This qHTS will be used to screen the Molecular Libraries Small Molecule Repository (MLSMR) as a concentration-titration series using the NCGC unique quantitative screening (qHTS) platform to find activators for EPAC1. In addition, this assay will also be used as a counterscreen for the EPAC2 qHTS. This fluorescent based assay is developed and validated for EPAC1 that measures exchange using EPAC effector Rap1 complex with BODIPY-GDP, a GDP analog with a tethered fluorophores. Activators are identified by monitoring the change in fluorescence signal as the exchanged free BODIPY-GDP has a reduced fluorescence compared to Rap1-bound BODIPY-GDP. Increase in signal (activation) is the desired outcome for the EPAC1 agonist while no activity in this assay is desired for the EPAC2 agonist counterscreen.
[1] de Rooij, J., Zwartkruis, F. J., Verheijen, M. H., Cool, R. H., Nijman, S. M., Wittinghofer, A., and Bos, J.L. (1998) Nature 396, 474-477.
Briefly, three uL of reagents (100 nM EPAC1, 250 nM RAP1B-BODIPY-GDP, 50 uM GDP) were dispensed into a 1536-well Greiner black solid-bottom medium binding assay plate. Controls and test compounds (23 nL) were transferred to the plate via a Kalypsys pin tool equipped with a 1536-pin array. The plates were centrifuged at 1,000 rpm for 15 seconds followed by 5 minute incubation at room temperature. The assay plates were read at 5 minute intervals for 30 minutes in the ViewLux plate reader using 480nm excitation and 540nm emission filters. The results were normalized to the […] positive control ATA and DMSO.
Further: nearly all actives have a fitted effect of over 75% in size.

Sequence of UniProt O95398 (O95398 whole entry, looked up): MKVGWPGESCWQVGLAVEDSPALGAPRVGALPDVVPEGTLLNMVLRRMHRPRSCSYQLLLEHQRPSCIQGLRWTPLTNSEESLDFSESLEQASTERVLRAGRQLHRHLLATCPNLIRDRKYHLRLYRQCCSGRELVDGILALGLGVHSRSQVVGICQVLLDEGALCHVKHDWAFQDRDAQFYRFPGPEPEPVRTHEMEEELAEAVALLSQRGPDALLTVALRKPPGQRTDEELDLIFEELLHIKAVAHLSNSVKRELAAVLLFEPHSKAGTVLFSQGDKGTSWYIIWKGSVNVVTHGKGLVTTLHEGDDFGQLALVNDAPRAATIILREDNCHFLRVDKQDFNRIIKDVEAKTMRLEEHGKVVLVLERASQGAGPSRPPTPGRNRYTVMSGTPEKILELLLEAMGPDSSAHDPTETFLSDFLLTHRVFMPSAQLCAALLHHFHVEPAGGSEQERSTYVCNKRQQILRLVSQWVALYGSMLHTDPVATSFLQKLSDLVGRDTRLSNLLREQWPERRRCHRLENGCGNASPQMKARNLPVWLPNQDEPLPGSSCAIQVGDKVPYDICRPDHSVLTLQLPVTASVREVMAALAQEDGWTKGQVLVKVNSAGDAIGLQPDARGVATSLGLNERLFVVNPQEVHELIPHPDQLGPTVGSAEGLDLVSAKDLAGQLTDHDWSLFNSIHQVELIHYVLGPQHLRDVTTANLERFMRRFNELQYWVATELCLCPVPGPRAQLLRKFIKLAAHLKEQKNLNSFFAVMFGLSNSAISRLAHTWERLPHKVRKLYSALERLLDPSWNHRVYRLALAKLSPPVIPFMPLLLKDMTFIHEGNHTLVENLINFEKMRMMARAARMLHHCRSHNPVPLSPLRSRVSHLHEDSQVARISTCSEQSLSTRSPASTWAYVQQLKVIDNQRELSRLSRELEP

Activity change, negative = inhibition, inactive:
COc1ccc(SC[C@H](C)CN2CC[C@H](C)CCC2=O)cc1 -14.2%, C[C@H]1C[C@H]2[C@@H]3CCC4=CC(=O)C=C[C@]4(C)[C@@]3(Cl)[C@@H](O)C[C@]2(C)[C@@]1(O)C(=O)CO 11.5%, CCCCCC(N)=O 1.91%, CCCCCCCCN1[C@@H](CC(=O)O)c2cc(F)ccc2S1(=O)=O -5.5%, CN1CCC(CN2c3ccccc3Sc3ccccc32)C1 (centres undefined) 23.5%, Clc1ccccc1-c1cncnc1NCCN1CCOCC1 0.723%, CC(=O)c1ccc(F)c(-c2cc(C)cc3c2OC(CNC(=O)C(C)n2nc(C)cc2C)C3)c1 (centres undefined) 4.3%, Oc1ccc(O)cc1, CCNc1ncc2nc(CCc3ccccc3)c(=O)n(Cc3cccc(OC)c3)c2n1 -5.72%, COc1cc(C)c(CN2C[C@H](Sc3nc4ccccc4[nH]3)C[C@H]2C(=O)N(C)C)cc1C -5.59%, COCC(=O)N1CCC2(CC1)CN(Cc1cc(C(F)(F)F)cc(C(F)(F)F)c1)C2 -1.08%, CCC1COCCS(=O)(=O)N1Cc1ccc(Cl)cc1 (centres undefined) 14%, O=C1CCN(Cc2ccccc2)CCN1CCSc1ccccc1 3.22%, COc1cc2nc(N3CCN(C(=O)C4CCCO4)CC3)nc(N)c2cc1OC (centres undefined), O=P(O)(O)OCC(O)CO (centres undefined) 20.3%, NCC1CCCCC1CC(=O)O (centres undefined) -8.96%, COC(=O)CCC[N+](C)(C)C 14%, CC(=O)NCCNc1nc(-c2c(C)noc2C)nc2ccccc12 9.49%, COc1cccc(C(=O)NCc2nc(-c3cccc(NC(=O)c4ccoc4C)c3)oc2C)c1OC -1.59%, O=C(NCC1(N2CCOCC2)CCCCCC1)c1cnn(-c2nccc(-c3ccco3)n2)c1C1CC1 9.96%, COCCn1c(=O)c(-c2cn(C)c3ccccc23)nc2cnc(Oc3ccccc3)nc21 17.5%, Cn1cccc1C(=O)N1CCC2(CCCN(Cc3ccc(C#N)cc3)C2)CC1 7.69%, COC(=O)c1cc(CNC(=O)c2cccc(F)c2)cc(NC(=O)c2ccccc2OC)c1 -7.05%, O=C1NC(=O)C(Cc2ccccc2)(C2CCN(Cc3cccn3-c3cccnc3)CC2)N1 (centres undefined) 5.47%, CCCc1cc(OC)c2c(c1)OCO2 0.634%, COC(=O)C1CCN(Cc2ccc3c(c2)CN(C(=O)C2CCCN(c4ccccn4)C2)CCO3)CC1 (centres undefined) 12.7%, N#Cc1cccc(-c2nc(N3CCNCC3)c3ccccc3n2)c1 7.76%, Clc1ccccc1-c1nc(Nc2ccncc2)c2ccccc2n1 -3.65%, OC[C@H]1O[C@@H](n2cnc3c(N[C@H]4C[C@H]5CC[C@@H]4C5)ncnc32)[C@H](O)[C@@H]1O 5.9%, O=C(c1cnccn1)N1CCC[C@@]2(CCN(c3ccccn3)C2)C1 8.26%, Cc1c(C(=O)NCC2Cc3cccc(-c4cncnc4)c3O2)c(-c2ccccc2)nn1-c1ccccc1 (centres undefined) 9.21%, O=C([C@@H]1CC=C[C@@H]2CCN(C3CCCCC3)C(=O)[C@@H]21)N1CCN(c2ccccc2)CC1 -2.93%, CC(=O)NC(C(=O)O)C(C)(C)SN=O (centres undefined) 9.85%, Nc1ccc(S(=O)(=O)Nc2ccc(Cl)nn2)cc1, COc1ccc(Oc2ncc3nc(C)c(=O)n(C[C@H]4CCCO4)c3n2)cc1 14.9%, CCCN1CCC(=O)N(CCC#N)CC1 -0.262%, O=C1c2c(O)cc(O)cc2OC(c2ccc(O)c(O)c2)C1O (centres undefined), CCc1ccc2c(c1)N(CC(C)CN(C)C)c1ccccc1S2 (centres undefined) 21%, CC1CN(CCC(=O)NCc2ccc3ncccc3c2)Cc2cc(Cl)ccc2O1 (centres undefined) 4.31%, CC(C)NC[C@@H](O)COc1cccc2[nH]ccc12 -0.282%, O=C(NC1CCCCC1)[C@@H]1CC=C[C@@H]2CCN(C3CCCCC3)C(=O)[C@@H]21 12.9%, O=C1CCN(Cc2ccc([N+](=O)[O-])cc2)CCN1CCO 8.33%, COc1ccc(CN2CCC(=O)N([C@H](CO)c3ccccc3)CC2)cc1OC -7.47%, CN(C)CCCOc1nn(Cc2ccccc2)c2ccccc12 12.6% [at 75.8 µM], O=C1c2ccccc2C(=O)c2c(NCCc3ccc(O)cc3)ccc(NCCc3ccc(O)cc3)c21 -1.78% [at 75.8 µM], COc1cc2c(cc1OC)C1C(=O)c3ccc4c(c3OC1CO2)C=CC(C)(C)O4 (centres undefined) -27.3%, CCCS(=O)(=O)NCc1c(C)ncc2c1CCN(C(=O)c1cccc(Cl)c1F)C2 2.42%, CN(C)C1CCC(CC2CCc3ccccc32)CC1 (centres undefined) 12.4%, N#Cc1ccc(CN2CC[C@@]3(CCCN(C(=O)c4cnccn4)C3)C2)cc1 18.2%, N#CCCn1c(=O)c(-c2cc(F)cc(F)c2)nc2cnc(N3CCOCC3)nc21 29%, C=CC(COCc1ccccc1)N([C@@H](Cc1ccccc1)C(=O)OC)S(=O)(=O)c1ccccc1Br (some centres undefined) 12.5%, O=c1c(-c2ccc(F)cc2)nc2cnc(N3CCNCC3)nc2n1Cc1cccs1 -6.65%, COc1ccc(-c2nc3cnc(N(C)C)nc3n(C[C@H]3CCCO3)c2=O)cc1 20%, N#CCCn1c(=O)c(-c2cc(F)cc(F)c2)nc2cnc(OCc3ccccc3)nc21 1.01%, COc1cc(O)c(C(C)=O)c(OC)c1 13.1%, Nc1ccn(C[C@@H](CO)OCP(=O)(O)O)c(=O)n1 -27.9%, O=C(c1cnccn1)N1CCC2(CCCN(c3ccccc3)C2)CC1 10.3%, CC[C@@H]1CN2CCc3cc(OC)c(OC)cc3[C@@H]2C[C@@H]1C[C@H]1NCCc2cc(OC)c(OC)cc21 3.45%, Cc1ccccc1N=C1Nc2ccccc2N[C@]12C[C@H]1CCCC(=O)N3CC[C@@H](C2)[C@@H]13 4.45%, CN1CCCC(CN2c3ccccc3Sc3ccccc32)C1 (centres undefined) 5.2%, COc1ccccc1CN1Cc2cccc3c2[C@@H](CC1=O)[C@H](O)[C@H](O)C3 8.51%, CO[C@]12C[C@@H](COC(=O)c3cncc(Br)c3)CN(C)[C@@H]1Cc1cn(C)c3cccc2c13, Cc1oc(-c2cccc(NC(=O)c3ccccn3)c2)nc1CNC(=O)C#Cc1ccccc1 0.0681%, O=C(NCC1CCC2(CCN(Cc3cc4ccccc4o3)CC2)O1)c1ccccc1 (centres undefined) 12.5%, COc1cccc(Nc2ncc3nc(C)c(=O)n(C[C@H]4CCCO4)c3n2)c1 6.81%, COCC1CCCN(Cc2ccc3c(c2)CN(C(=O)c2ccc(-n4cccn4)cc2)CCO3)C1 (centres undefined) 31%, Cc1ncc(C[n+]2csc(CCOP(=O)(O)O)c2C)c(N)n1 1.84%, CNCC[C@H](Oc1ccc(C(F)(F)F)cc1)c1ccccc1, N#CCCn1c(=O)c(-c2cc(F)cc(F)c2)nc2cnc(Oc3cccc(Cl)c3)nc21 10.4%, COCCn1c(=O)c(CCc2ccccc2)nc2cnc(Oc3cccc(Cl)c3)nc21 -14.4%, COc1cc(C(=O)N2CCOCC2)cc(OC)c1OC 13.7%, C=C1C(=O)O[C@H]2[C@H]1CC/C(C)=C\CC[C@@]1(C)O[C@@H]21 13%, COc1ncc2nc(-c3ccc(F)cc3)c(=O)n(-c3ccccc3)c2n1 0.41%, CC(=O)OCC(=O)[C@@]1(O)CC[C@H]2[C@@H]3CCC4=CC(=O)CC[C@]4(C)[C@H]3C(=O)C[C@@]21C, Cc1cccc(CN2Cc3cccc4c3[C@H](C=CC4)CC2=O)c1 -5.04%, CC(C)(C)[C@H]1CCC(=O)N(CCSc2ccc(Br)cc2)CC1 -12.9%, CC(=O)OCC(=O)[C@@]1(O)CC[C@H]2[C@@H]3CCC4=CC(=O)C=C[C@]4(C)[C@@]3(F)[C@@H](O)C[C@@]21C 1.69% [at 75.8 µM], CCCCCCCCCCCCCc1ccco1 18.9%, Cc1cnc(-n2ncc(C(=O)N[C@H]3CCCCNC3=O)c2C2CC2)nc1-c1cccs1 14.5%, Cn1cc(C(=O)OCC2CCN(CCNS(C)(=O)=O)CC2)c2ccccc21, COc1ccc(OC)c(CN2CCOc3ccc(CN4CCC(O)(c5cccnc5)CC4)cc3C2)c1 7.4%, CNc1cc(-c2ccccc2C)ncn1 13%, O=C(O)COc1cccc(-c2ocnc2-c2nc(-c3ccccc3)c(-c3ccccc3)o2)c1 -13.6%, CCN1\C(=C/C=C/C=C/c2sc3ccccc3[n+]2CC)Sc2ccccc21 -20.6%, CNc1ccnc(-c2ccccc2CN(C)C)n1 0.0893%, [O]=[Bi][O][Bi]=[O] -8.6%, Cc1cnc(-n2ncc(C(=O)NCC(C)(C)N3CCOCC3)c2C)nc1-c1cccs1 12.4%, S=C=Nc1ccc(N=C=S)cc1 17.2%, O=C(O)COc1nn(Cc2ccccc2)c2ccccc12 20.3%, COc1cccc(Nc2ncc3nc(-c4ccc(Cl)cc4)c(=O)n(C4CC4)c3n2)c1 18.1%, CO[C@]12CC(COC(=O)c3cncc(Br)c3)CN(C)[C@@H]1Cc1cn(C)c3cccc2c13 (some centres undefined) 6%, CN1CCC2(CCN3CCc4c(oc5ccccc45)C3C2)N(C)C1=O (centres undefined) 2.96% [at 75.8 µM], Cc1noc(C)c1-c1nc(NCCN2CCOCC2)c2ccccc2n1 15.1%, O=c1cc(-c2ccccc2O)oc2cc(O)cc(O)c12 15.4%, O=C(NCCN1CCOCC1)c1cnn(-c2nccc(-c3cc4ccccc4o3)n2)c1C1CC1 14.1%, NC(=O)c1ccc(-c2nc(-c3ccc4c(c3)OCO4)c(-c3ccccn3)[nH]2)cc1 6.09%, COc1ccc(/C=C/C(=O)c2cccs2)cc1OC 10.7%, COC(=O)[C@@H]1CCCN1Cc1ccc2c(c1)CN(Cc1ccc(OC)c(C)c1)CCO2 6.61%, C[N+]12CCC(CC1)C(OC(=O)C(O)(c1ccccc1)c1ccccc1)C2 (centres undefined), CN(C)C(=O)c1ccc(-c2cncnc2N2CCNCC2)cc1 -7.19%, O=C(c1cc(C(F)(F)F)cc(C(F)(F)F)c1)N1CCC2(CC1)CN(c1ccncc1)C2 12.6%, Nc1ncnc2c1ncn2[C@@H]1O[C@H](COP(=O)(O)O)[C@@H](O)[C@H]1O -2.32%, O=C1CCN(Cc2ccccc2)CCN1[C@H](COc1ccccc1)Cc1ccccc1 -6.82%, Cc1ccccc1-c1nc(N2CCNCC2)c2ccccc2n1 5.51%
